Common to all, as to assay: glycan array binding signal (z-score within array); higher = stronger binding
What all share (conditions): glycan notation: IUPAC condensed, linker removed

The target of experiment [1] is Neu5Gc(a2-8)Neu5Gc(a2-3)Gal(b1-4)GlcNAc(b1-3)Gal(b1-4)GlcNAc. The essentials: (§1)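 Glycan array binding is given as a within-array Z-score, which can be read as non-binding when negative. The arrays, 3228 of them, came from the Consortium for Functional Glycomics database and were retained only where the protein sequence was available. Z-scores were averaged across arrays of the same protein sequence at different concentrations or buffers and across linkers.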

The target of experiment [2] is Neu5Gc(a2-8)Neu5Gc(a2-6)Gal(b1-4)GlcNAc. The essentials:
as §1

The target of experiment [3] is Neu5Gc(b2-6)Gal(b1-4)GlcNAc. The essentials:
as §1

The values that follow come from the supplement of paper PMC8728848.

This is one part of the list.

B1: Sebin2 (Coprinopsis cinerea), A8PE78 (protein)
chain: MTTPFYAYCHNVQDDNTWRLGLVFANRSTADEWWRAISEATSSIPITKSITRVTPQYYTHDIRVWNMYNFFVDGNIKSISDKFRGRLFITLEYDRSGRGVSVFPPLHIVDHVSGNWYYIRSKTAPHLFWFYDETRNAIYASKEKRTRFKVSIRNPSPQTPKDAIMINSDDVVIHIKESLYVGVDSYLGHIIPTRAYRTFKFGELEGGAIAGIEVAENAEERCSSTFDGASLYFVGPDSSSPGEPWELV
As for B1, the “glycan array binding signal (z-score)” value was -0.327 in experiment [1], -0.567 in experiment [2] and 0.148 in experiment [3].
